Results taken from the supplement of paper PMC8728848.
The other results are listed elsewhere or left out.

Assays:
Assay in all cases: glycan array binding signal (z-score within array); higher = stronger binding
Details in all cases: glycan notation: IUPAC condensed, linker removed
[1] = target: Kdn(a2-3)Gal(b1-4)Glc
In short: (§1)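 Columns mapping to the same glycan were averaged after glycan names were converted to IUPAC-condensed notation. The data come from 3228 arrays in the Consortium for Functional Glycomics database, limited to those with an available protein sequence. Binding is reported as a within-array Z-score averaged across arrays of one protein sequence and across linkers.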

[2] = target: Kdn(a2-3)Gal(b1-4)GlcNAc
In short: as §1

[3] = target: Kdn(a2-3)Gal(b1-4)[Fuc(a1-3)]GlcNAc
In short: as §1

[4] = target: Kdn(a2-6)Gal(b1-4)GlcNAc
In short: as §1

[5] = target: Man(a1-2)Man(a1-2)Man(a1-3)Man
In short: as §1

[6] = target: Man(a1-2)Man(a1-2)Man(a1-6)[Man(a1-3)]Man
In short: as §1

[7] = target: Man(a1-2)Man(a1-3)Man
In short: as §1

[8] = target: Man(a1-2)Man(a1-3)[Man(a1-2)Man(a1-6)]Man
In short: as §1

[9] = target: Man(a1-2)Man(a1-3)[Man(a1-2)Man(a1-6)]Man(a1-6)[Man(a1-2)Man(a1-2)Man(a1-3)]Man
In short: as §1

[10] = target: Man(a1-2)Man(a1-3)[Man(a1-2)Man(a1-6)]Man(a1-6)[Man(a1-2)Man(a1-2)Man(a1-3)]Man(b1-4)GlcNAc(b1-4)GlcNAc
In short: as §1

[11] = target: Man(a1-2)Man(a1-3)[Man(a1-2)Man(a1-6)]Man(a1-6)[Man(a1-3)[Man(a1-6)]Man(a1-6)]Man(b1-4)GlcNAc(b1-4)GlcNAc
In short: as §1

[12] = target: Man(a1-2)Man(a1-3)[Man(a1-6)]Man(a1-6)[Man(a1-2)Man(a1-3)]Man(b1-4)GlcNAc(b1-4)GlcNAc
In short: as §1

[13] = target: Man(a1-2)Man(a1-6)[Man(a1-3)]Man(a1-6)[Man(a1-2)Man(a1-2)Man(a1-3)]Man
In short: as §1

[14] = target: Man(a1-2)Man(a1-6)[Man(a1-3)]Man(a1-6)[Man(a1-2)Man(a1-2)Man(a1-3)]Man(b1-4)GlcNAc(b1-4)GlcNAc
In short: as §1

[15] = target: Man(a1-3)[Man(a1-6)]Man
In short: as §1

[16] = target: Man(a1-3)[Man(a1-6)]Man(a1-6)[Man(a1-2)Man(a1-3)]Man(b1-4)GlcNAc(b1-4)GlcNAc
In short: as §1

[17] = target: Man(a1-3)[Man(a1-6)]Man(a1-6)[Man(a1-3)]Man
In short: as §1

[18] = target: Man(a1-3)[Man(a1-6)]Man(a1-6)[Man(a1-3)]Man(b1-4)GlcNAc(b1-4)GlcNAc
In short: as §1

[19] = target: Man(a1-3)[Man(a1-6)]Man(b1-4)GlcNAc(b1-4)GlcNAc
In short: as §1

[20] = target: Man(a1-3)[Man(a1-6)]Man(b1-4)GlcNAc(b1-4)[Fuc(a1-6)]GlcNAc
In short: as §1

[21] = target: Man(a1-6)Man
In short: as §1

[22] = target: Man(b1-4)GlcNAc
In short: as §1

[23] = target: MurNAc(b1-4)GlcNAc
In short: as §1

[24] = target: Neu5Ac(a2-3)Gal
In short: as §1

[25] = target: Neu5Ac(a2-3)Gal(b1-3)GalNAc
In short: as §1

[26] = target: Neu5Ac(a2-3)Gal(b1-3)GalNAc(b1-3)Gal(a1-4)Gal(b1-4)Glc
In short: as §1

[27] = target: Neu5Ac(a2-3)Gal(b1-3)GalNAc(b1-3)Gal(b1-4)GlcNAc
In short: as §1

[28] = target: Neu5Ac(a2-3)Gal(b1-3)GalNAc(b1-4)Gal(b1-4)Glc
In short: as §1

[29] = target: Neu5Ac(a2-3)Gal(b1-3)GalNAc(b1-4)[Neu5Ac(a2-3)]Gal(b1-4)Glc
In short: as §1

[30] = target: Neu5Ac(a2-3)Gal(b1-3)GalNAc(b1-4)[Neu5Ac(a2-8)Neu5Ac(a2-3)]Gal(b1-4)Glc
In short: as §1

[31] = target: Neu5Ac(a2-3)Gal(b1-3)GalNAc6S
In short: as §1

[32] = target: Neu5Ac(a2-3)Gal(b1-3)GlcNAc
In short: as §1

[33] = target: Neu5Ac(a2-3)Gal(b1-3)GlcNAc(b1-2)Man
In short: as §1

[34] = target: Neu5Ac(a2-3)Gal(b1-3)GlcNAc(b1-2)Man(a1-3)[GlcNAc(b1-4)][Neu5Ac(a2-3)Gal(b1-3)GlcNAc(b1-2)Man(a1-6)]Man(b1-4)GlcNAc(b1-4)GlcNAc
In short: as §1

[35] = target: Neu5Ac(a2-3)Gal(b1-3)GlcNAc(b1-2)Man(a1-3)[Neu5Ac(a2-3)Gal(b1-3)GlcNAc(b1-2)Man(a1-6)]Man(b1-4)GlcNAc(b1-4)GlcNAc
In short: as §1

[36] = target: Neu5Ac(a2-3)Gal(b1-3)GlcNAc(b1-2)[Neu5Ac(a2-3)Gal(b1-3)GlcNAc(b1-4)]Man(a1-6)[Neu5Ac(a2-3)Gal(b1-3)GlcNAc(b1-2)Man(a1-3)]Man(b1-4)GlcNAc(b1-4)GlcNAc
In short: as §1

[37] = target: Neu5Ac(a2-3)Gal(b1-3)GlcNAc(b1-3)Gal(b1-3)GlcNAc
In short: as §1

[38] = target: Neu5Ac(a2-3)Gal(b1-3)GlcNAc(b1-3)Gal(b1-4)GlcNAc
In short: as §1

[39] = target: Neu5Ac(a2-3)Gal(b1-3)GlcNAc(b1-3)GalNAc
In short: as §1

[40] = target: Neu5Ac(a2-3)Gal(b1-3)GlcNAc(b1-4)Gal(b1-4)Glc
In short: as §1

[41] = target: Neu5Ac(a2-3)Gal(b1-3)GlcNAc(b1-6)GalNAc
In short: as §1

[42] = target: Neu5Ac(a2-3)Gal(b1-3)GlcNAc6S
In short: as §1

[43] = target: Neu5Ac(a2-3)Gal(b1-3)[Fuc(a1-4)]GlcNAc
In short: as §1

[44] = target: Neu5Ac(a2-3)Gal(b1-3)[Fuc(a1-4)]GlcNAc(b1-3)Gal(b1-3)[Fuc(a1-4)]GlcNAc
In short: as §1

[45] = target: Neu5Ac(a2-3)Gal(b1-3)[Fuc(a1-4)]GlcNAc(b1-3)Gal(b1-4)[Fuc(a1-3)]GlcNAc
In short: as §1

B1: GNA (Galanthus nivalis), P30617 (protein)
chain: MAKASLLILAAIFLGVITPSCLSDNILYSGETLSTGEFLNYGSFVFIMQEDCNLVLYDVDKPIWATNTGGLSRSCFLSMQTDGNLVVYNPSNKPIWASNTGGQNGNYVCILQKDRNVVIYGTDRWATGTHTGLVGIPASPPSEKYPTAGKIKLVTAK
glycan array binding signal (z-score) [1]: -0.23 | glycan array binding signal (z-score) [2]: -0.099 | glycan array binding signal (z-score) [3]: -0.137 | glycan array binding signal (z-score) [4]: -0.184 | glycan array binding signal (z-score) [5]: 0.719 | glycan array binding signal (z-score) [6]: 0.639 | glycan array binding signal (z-score) [7]: -0.017 | glycan array binding signal (z-score) [8]: 0.646 | glycan array binding signal (z-score) [9]: 0.512 | glycan array binding signal (z-score) [10]: 0.303 | glycan array binding signal (z-score) [11]: 6.07 | glycan array binding signal (z-score) [12]: 2.23 | glycan array binding signal (z-score) [13]: 2.03 | glycan array binding signal (z-score) [14]: 3.2 | glycan array binding signal (z-score) [15]: 4.73 | glycan array binding signal (z-score) [16]: 5.86 | glycan array binding signal (z-score) [17]: 3.04 | glycan array binding signal (z-score) [18]: 5.35 | glycan array binding signal (z-score) [19]: 9.48 | glycan array binding signal (z-score) [20]: 6.97 | glycan array binding signal (z-score) [21]: -0.24 | glycan array binding signal (z-score) [22]: -0.102 | glycan array binding signal (z-score) [23]: -0.174 | glycan array binding signal (z-score) [24]: -0.093 | glycan array binding signal (z-score) [25]: -0.215 | glycan array binding signal (z-score) [26]: -0.077 | glycan array binding signal (z-score) [27]: -0.195 | glycan array binding signal (z-score) [28]: -0.133 | glycan array binding signal (z-score) [29]: -0.14 | glycan array binding signal (z-score) [30]: -0.155 | glycan array binding signal (z-score) [31]: -0.1 | glycan array binding signal (z-score) [32]: -0.17 | glycan array binding signal (z-score) [33]: -0.137 | glycan array binding signal (z-score) [34]: -0.114 | glycan array binding signal (z-score) [35]: -0.094 | glycan array binding signal (z-score) [36]: -0.033 | glycan array binding signal (z-score) [37]: -0.219 | glycan array binding signal (z-score) [38]: -0.158 | glycan array binding signal (z-score) [39]: -0.162 | glycan array binding signal (z-score) [40]: -0.145 | glycan array binding signal (z-score) [41]: -0.168 | glycan array binding signal (z-score) [42]: -0.198 | glycan array binding signal (z-score) [43]: -0.176 | glycan array binding signal (z-score) [44]: -0.174 | glycan array binding signal (z-score) [45]: -0.321
